These are yes or no findings as the source states them, for the method shown. Some binding calls cover weakened binding; strength is not graded here. For some assays here: Where a sequence is shown, tags or fusion partners need not be part of it.
Assays:
[1] = target: T1, full-length DnaD fused to T25 or T18 fragments (B. subtilis) (UniProt P39787); experiment: two-hybrid; bacterial two-hybrid with T25 and T18 fusions co-transformed into E. coli BTH101 (ΔcyaA); spotted on LB plates with X-gal and 0.5 mM IPTG; 30°C for 24 hours, then room temperature for 3 days
T1 sequence: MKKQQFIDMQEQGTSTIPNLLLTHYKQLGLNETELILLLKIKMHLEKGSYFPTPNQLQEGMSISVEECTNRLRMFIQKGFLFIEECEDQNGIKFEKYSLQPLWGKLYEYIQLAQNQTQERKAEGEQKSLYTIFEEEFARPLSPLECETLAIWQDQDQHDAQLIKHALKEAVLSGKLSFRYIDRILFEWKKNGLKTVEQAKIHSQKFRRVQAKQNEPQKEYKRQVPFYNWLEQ

By UniProt entry, the sequences of proteins in these tests, tags left out.
UniProt P05648: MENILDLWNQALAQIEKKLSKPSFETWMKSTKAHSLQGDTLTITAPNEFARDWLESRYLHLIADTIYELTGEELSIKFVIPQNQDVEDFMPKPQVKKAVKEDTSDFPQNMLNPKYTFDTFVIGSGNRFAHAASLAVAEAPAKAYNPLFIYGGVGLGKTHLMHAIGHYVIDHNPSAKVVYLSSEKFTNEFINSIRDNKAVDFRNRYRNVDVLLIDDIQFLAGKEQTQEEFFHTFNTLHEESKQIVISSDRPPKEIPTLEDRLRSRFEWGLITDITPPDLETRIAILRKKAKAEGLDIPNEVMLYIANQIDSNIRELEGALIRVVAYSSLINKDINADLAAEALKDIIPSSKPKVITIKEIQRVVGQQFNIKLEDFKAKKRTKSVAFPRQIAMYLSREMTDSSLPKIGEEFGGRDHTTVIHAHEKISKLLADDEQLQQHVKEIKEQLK

[2] = target: T2, full-length DnaB fused to T25 or T18 fragments (B. subtilis) (UniProt P07908); experiment: as above
T2 sequence: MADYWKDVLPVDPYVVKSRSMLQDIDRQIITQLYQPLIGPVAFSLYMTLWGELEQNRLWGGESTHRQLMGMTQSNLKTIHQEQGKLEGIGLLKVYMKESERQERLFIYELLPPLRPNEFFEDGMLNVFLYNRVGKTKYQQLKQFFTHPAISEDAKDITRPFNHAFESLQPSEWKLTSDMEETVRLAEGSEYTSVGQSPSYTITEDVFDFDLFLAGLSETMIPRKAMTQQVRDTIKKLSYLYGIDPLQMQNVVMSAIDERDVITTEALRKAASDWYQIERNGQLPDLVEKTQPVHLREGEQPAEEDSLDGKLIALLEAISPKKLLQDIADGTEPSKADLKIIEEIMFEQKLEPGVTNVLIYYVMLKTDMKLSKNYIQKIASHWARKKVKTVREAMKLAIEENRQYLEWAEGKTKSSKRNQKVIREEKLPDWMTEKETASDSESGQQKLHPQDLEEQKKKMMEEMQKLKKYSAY

[3] = target: full-length DnaA fused to T25 or T18 fragments (B. subtilis) (UniProt P05648); experiment: as above
[4] = target: purified WT CcrZ (B. subtilis), recombinant from E. coli (B. subtilis) (UniProt C0SPC1); experiment: SEC; S200 column, 20 mM Tris-HCl pH 8.0, 150 mM NaCl, 1 mM DTT; compared with protein standards (15-600 kDa); CcrZ peak at ~68 mL retention, equivalent to a 30 kDa monomer; both purified
[5] = target: SelenoMet WT CcrZ (B. subtilis) bound to AMP-PNP (B. subtilis) (UniProt C0SPC1); experiment: crystal structure; SelenoMet CcrZ with AMP-PNP, 2.6 Å, space group P 43 21 2; contact with a symmetry mate in the crystal lattice; both purified

B1: CcrZ (B. subtilis), full-length, fused to T25 or T18 fragments (protein, UniProt C0SPC1 1-269)
chain: MNIDMNWLGQLLGSDWEIFPAGGATGDAYYAKHNGQQLFLKRNSSPFLAVLSAEGIVPKLVWTKRMENGDVITAQHWMTGRELKPKDMSGRPVAELLRKIHTSKALLDMLKRLGKEPLNPGALLSQLKQAVFAVQQSSPLIQEGIKYLEEHLHEVHFGEKVVCHCDVNHNNWLLSEDNQLYLIDWDGAMIADPAMDLGPLLYHYVEKPAWESWLSMYGIELTESLRLRMAWYVLSETITFIAWHKAKGNDKEFHDAMEELHILMKRIVD
binding [1]: no binding
binding [2]: binds
binding [3]: no binding

B2: purified WT CcrZ (B. subtilis), recombinant from E. coli (enzyme, UniProt C0SPC1 2-269)
chain: NIDMNWLGQLLGSDWEIFPAGGATGDAYYAKHNGQQLFLKRNSSPFLAVLSAEGIVPKLVWTKRMENGDVITAQHWMTGRELKPKDMSGRPVAELLRKIHTSKALLDMLKRLGKEPLNPGALLSQLKQAVFAVQQSSPLIQEGIKYLEEHLHEVHFGEKVVCHCDVNHNNWLLSEDNQLYLIDWDGAMIADPAMDLGPLLYHYVEKPAWESWLSMYGIELTESLRLRMAWYVLSETITFIAWHKAKGNDKEFHDAMEELHILMKRIVD
binding [4]: no binding

B3: SelenoMet WT CcrZ (B. subtilis) bound to AMP-PNP (enzyme, UniProt C0SPC1 2-269)
chain: B2 chain
modifications: selenomethionine derivative
binding [5]: no binding
